{"source": "the supplement of paper PMC11417369", "note": "The other results are listed elsewhere or left out."}
{"tested_on": "PfAP2-HC AP2 domain (GST-tagged)", "experiment": "gcPBM binding intensity (ln(normalized median fluorescence intensity)); higher = stronger DNA binding", "outline": "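Binding of GST-tagged P. falciparum DNA-binding domains, expressed in E. coli and used at about 25 μg on average, was carried out for 1 h in 1× PBS containing 1% milk, 0.2 mg/ml BSA, 0.5% salmon testes DNA and 0.03% Triton X-100. The target was an Agilent 4 × 180k array of primer-extended double-stranded 36-bp intergenic genomic probes plus negative controls, read with Alexa488 anti-GST antibody at 488 nm. Binding intensity is the highest Masliner-normalised natural-log median intensity across replicate spots of either probe orientation.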"}
{"sequence": "TTTTCTTCCTATTATTGTACATATAGTATTCTTTCA [XGTACX_site4428]", "gcPBM binding intensity (ln)": 9.79}
{"sequence": "AATATAAGTAATTATACACACTTAATATTTATATAC [CACACA_site7334]", "gcPBM binding intensity (ln)": 9.72}
{"sequence": "TAATAATAAACAACCACACACAAAAAAACAAAAAAA [CACACA_site3269]", "gcPBM binding intensity (ln)": 10.3}
{"sequence": "GTAGCACATATATATTGTACATAATATATACATTAT [XGTACX_site6354]", "gcPBM binding intensity (ln)": 9.79}
{"sequence": "ATTTAATTATGTAAGTGTACTTTGGAATATAATATT [XGTACX_site3186]", "gcPBM binding intensity (ln)": 9.46}
{"sequence": "TATATAACATAATATACACACATTATATGCGTAATT [CACACA_site6098]", "gcPBM binding intensity (ln)": 9.8}
{"sequence": "ATTAAAGAAATATATACACACATTATGGGGGAATAA [CACACA_site178]", "gcPBM binding intensity (ln)": 9.93}
{"sequence": "GATATATAAATAAATACACACATAAAATAGAAATAT [CACACA_site6881]", "gcPBM binding intensity (ln)": 10}
{"sequence": "GTTAGGATAGATTAGACATGCACATAAATGCACTTC [TGCATGCA_site561]", "gcPBM binding intensity (ln)": 9.6}
{"sequence": "TTTTTATAGAATTTAACACACATTTCATATAAAAAA [CACACA_site7453]", "gcPBM binding intensity (ln)": 9.25}
{"sequence": "AATTTAAGCAGAACATATATATATATATATATAAAG [CACACA_negctrl_site769]", "gcPBM binding intensity (ln)": 9.51}
{"sequence": "TATATGCTATAATATACACACATACCTATATTTATA [CACACA_site6383]", "gcPBM binding intensity (ln)": 9.94}
{"sequence": "TTTAAATGCTTTTTGTGGTGACTTATCCTTTCATAA [XGTACX_negctrl_site109]", "gcPBM binding intensity (ln)": 9.56}
{"sequence": "AATTATTTCTTTTACACATGCAATATTTAATTAAAA [TGCATGCA_site598]", "gcPBM binding intensity (ln)": 9.44}
{"sequence": "ACATATTAAAATATATGTACATAAAATATGAAAAAA [XGTACX_site5869]", "gcPBM binding intensity (ln)": 9.89}
{"sequence": "ATATTTATTCCTTTTGGTACACAAAAAAAAAAAAAA [XGTACX_site8126]", "gcPBM binding intensity (ln)": 9.29}
{"sequence": "ATAGAAATATTATATTGTACGAACAGTTATTAACAA [XGTACX_site2137]", "gcPBM binding intensity (ln)": 9.51}
{"sequence": "ATTATTTGTTTAAATTCACACACGTATATATATTTA [CACACA_site3050]", "gcPBM binding intensity (ln)": 10.1}
{"sequence": "ACATGTAAATGGAAAAGTACTAATAACTTGTATTGG [XGTACX_site5181]", "gcPBM binding intensity (ln)": 9.72}
{"sequence": "TTATTTTAATATAAAATACACACTACTATTATAAAT [CACACA_site1470]", "gcPBM binding intensity (ln)": 9.58}
{"sequence": "TAATTATTAAAACATTGTACATTATTATAAACAATT [XGTACX_site4489]", "gcPBM binding intensity (ln)": 9.5}
{"sequence": "ATATATAAATATATTACACACTTTTTCTTTTTTTTT [CACACA_site7332]", "gcPBM binding intensity (ln)": 9.68}
{"sequence": "TATTACATACAATATTGTACATATCATATTTTGAAT [XGTACX_site2191]", "gcPBM binding intensity (ln)": 9.88}
{"sequence": "ACGGAAAAAGAAAAGGTGCATATGGACACAATATAT", "gcPBM binding intensity (ln)": 10.2}
{"sequence": "CTTATATTAATTATTACACACATATTTATAAATGCA [CACACA_site6501]", "gcPBM binding intensity (ln)": 9.73}
{"sequence": "TTTTCCATAAGAATTACACACAGAAAGGATAAGTAT [CACACA_site105]", "gcPBM binding intensity (ln)": 9.83}
{"sequence": "AAACAGCATGGTATACCTATAAAATATATATACTAA [GTGCAC_negctrl_site39]", "gcPBM binding intensity (ln)": 9.66}
{"sequence": "ATATTTACCTTTGTATGTACATATATAAAATATATC [XGTACX_site6367]", "gcPBM binding intensity (ln)": 9.75}
{"sequence": "TTTTGTAAAAAGAAAAATTAGAATATATCGTATATA [XGTACX_negctrl_site617]", "gcPBM binding intensity (ln)": 9.1}
{"sequence": "GTATTTTTACAAATTTGTACATATATATGAATATAC [XGTACX_site6717]", "gcPBM binding intensity (ln)": 9.91}
{"sequence": "GTATATAAATATATATATATATATATATCTATATTT [CACACA_negctrl_site871]", "gcPBM binding intensity (ln)": 9.72}
{"sequence": "AAAGAAAAATTAACATGTACAAAAATTACTTGTTCA [XGTACX_site6725]", "gcPBM binding intensity (ln)": 9.58}
{"sequence": "AAAAAAAATTCACACTGTACAAAAGCATAAATAAAC [XGTACX_site5408]", "gcPBM binding intensity (ln)": 9.84}
{"sequence": "TCTGAAACAAGAAAAAGTACACAAATTACAAAACTA [XGTACX_site7641]", "gcPBM binding intensity (ln)": 9.58}
{"sequence": "TAATAAATACAAAAATGTACACACATATATATATTT [XGTACX_site7430]", "gcPBM binding intensity (ln)": 9.85}
{"sequence": "TTATTTATTTATTCATGTACGTGTATTTTTTAAAAA [XGTACX_site7915]", "gcPBM binding intensity (ln)": 9.63}
{"sequence": "TATATATATATTATCACACACTCACGTTTGACAAAA [CACACA_site689]", "gcPBM binding intensity (ln)": 9.88}
{"sequence": "ATTGGGTACAAATACACACACATATATATATTAAGA [CACACA_site5330]", "gcPBM binding intensity (ln)": 10.1}
{"sequence": "AGTGTCATATTAACACGTACATAATTATTGTAGAGA [XGTACX_site568]", "gcPBM binding intensity (ln)": 9.71}
{"sequence": "TTTGTATATTATTTTAGTACATAACATTGAAGATAT [XGTACX_site6680]", "gcPBM binding intensity (ln)": 9.45}
{"sequence": "ATATAAGGATTAATATGTACATATATATATATATTT [XGTACX_site1390]", "gcPBM binding intensity (ln)": 9.67}
{"sequence": "TATTTTGAAACTAAAAGACATAGAGAAAACAAAAAA [CACACA_negctrl_site1306]", "gcPBM binding intensity (ln)": 9.58}
{"sequence": "AAATAATGTTTGAATTGTACACATATTTGTGTTTCT [XGTACX_site4603]", "gcPBM binding intensity (ln)": 9.87}
{"sequence": "GTGGAACGTATATTTTCACACACTCTCAAAAGTACA [CACACA_site8722]", "gcPBM binding intensity (ln)": 9.81}
{"sequence": "ATGTTGCACAGTGGAAGAATTAAAAATAAATAAATA [XGTACX_negctrl_site581]", "gcPBM binding intensity (ln)": 9.44}
{"sequence": "GTGGAACATATGAACTCACACACATTTTCACTTAAA [CACACA_site3683]", "gcPBM binding intensity (ln)": 9.89}
{"sequence": "AATTTTTGTATTTTTAGTACTTAATTTCAAAATAAC [XGTACX_site4234]", "gcPBM binding intensity (ln)": 9.11}
{"sequence": "AATATTATAAATGTCACACATATATTCAAATATATA [CACACA_site4736]", "gcPBM binding intensity (ln)": 9.54}
{"sequence": "ATGAACATATCAATTCTCAAAATAGGATGAGAGCAT [CACACA_negctrl_site230]", "gcPBM binding intensity (ln)": 9.6}
{"sequence": "TTATAGAAAATGGAATAGAATGGAATGGAAGAAATA [CACACA_negctrl_site1086]", "gcPBM binding intensity (ln)": 9.69}
{"sequence": "ATTATATATAAGAAGAGTACTGAATATGTGCAATAT [XGTACX_site4471]", "gcPBM binding intensity (ln)": 9.84}
{"sequence": "TATATACACCCACATACACACAAATAAAAAAACACC [CACACA_site3414]", "gcPBM binding intensity (ln)": 10.5}
{"sequence": "GACATTGATACCAGTAGTACCTATAGATGTTTGTTT [XGTACX_site5736]", "gcPBM binding intensity (ln)": 10}
{"sequence": "TTATGGAATAATCACGTACACACAAGAAAAAAAAAA [CACACA_site526]", "gcPBM binding intensity (ln)": 9.93}
{"sequence": "ATGGTACATACATACACACACACAAAAAAAAAAAAA [CACACA_site1578]", "gcPBM binding intensity (ln)": 11.3}
{"sequence": "GTTCAATTTTTAGGAAGTACAAAAAAAAAAAAGAAA [XGTACX_site7286]", "gcPBM binding intensity (ln)": 9.42}
